Results from the supplement of paper PMC3724861.
Some of the results follow.

System: T1, Caupolican (Caup) homeodomain DNA-binding domain
T1 sequence: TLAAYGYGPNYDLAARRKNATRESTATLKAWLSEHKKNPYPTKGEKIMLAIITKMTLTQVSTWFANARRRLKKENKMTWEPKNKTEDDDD
Assay: PBM E-score (8-mer, recovered from the published 9-mer minima) (E-score (dimensionless, -0.5 to 0.5)); Drosophila protein; higher = stronger relative binding preference, active = 0.31 or more
Summary of the method: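 Caup's homeodomain DNA-binding domain (residues 214-303) was made by in vitro transcription and translation and applied at 100 nM to custom-designed protein binding microarrays. Each value is an enrichment score that gives relative binding preference for a short DNA word, with higher meaning stronger. The 8-mer values were recovered from published 9-mer scores, each of which was the minimum of its two constituent 8-mer scores. A cutoff of 0.31 marks candidate sites.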

Sequence	PBM E-score
CATATTTA	inactive: 0.178
CCGCGGTC	inactive: -0.225
GCGGTCAA	inactive: -0.0861
AAGATAAT	inactive: 0.0663
CAATGCAG	inactive: 0.00205
AGCGCAGC	inactive: -0.235
CTTACAGA	inactive: 0.0591
AGATAAGA	inactive: 0.105
CTAATCGA	inactive: 0.0915
ACTCTGAA	inactive: 0.0341
AATACCGA	inactive: 0.0108
CGTGACTA	inactive: 0.0993
ACAGGCAC	inactive: 0.0139
CAGTCAAA	inactive: 0.0235
TATGGCGA	inactive: -0.116
CCCGATGA	inactive: -0.0958
ATAGAGAA	inactive: 0.0414
CACTTGAA	inactive: 0.106
AAACGCTT	inactive: -0.0575
TCTTAACA	inactive: 0.218
CGCATAGA	inactive: -0.101
CGAGACGC	inactive: -0.134
AATACATT	inactive: 0.225
AGTTAACC	inactive: 0.074
AGGAGCAT	inactive: 0.0589

Sequence	PBM E-score
AGCCAGTG	inactive: -0.00949
AAGCGTGT	inactive: 0.265
AGTTGTTA	inactive: 0.266
ATCCGCCG	inactive: -0.134
CGCTATAA	inactive: 0.0278
TCGGGTCA	≥ -0.0606
ATTACTCA	inactive: 0.112
ACTATGCC	inactive: 0.0286
AGTACTAT	inactive: 0.165
CCAAATGC	inactive: -0.0451
AAAAGTGG	inactive: -0.0248
ACAATGTC	active: 0.316
AACACTCT	inactive: 0.154
CCCTGCGG	inactive: -0.29
CGCAGACG	inactive: -0.103
AGTCCTCA	inactive: -0.108
ATCCTGCA	≥ 0.0523
CAAGTACG	inactive: 0.116
CATAGGTC	inactive: 0.0256
GGGCCCCA	inactive: -0.304
AGAAGCCC	inactive: -0.196
AAGGTCCA	inactive: -0.0688
GTGTTGAA	inactive: 0.126
ATTGAATG	inactive: 0.137
GACCGATC	inactive: -0.0828

Sequence	PBM E-score
ATTCGCGC	inactive: -0.00589
CCGTCGTC	inactive: -0.127
GGGCCACA	inactive: -0.194
CCGCGCAG	inactive: -0.218
CCGTATCG	inactive: -0.11
CGCTTAAC	inactive: 0.0619
CAGACGAG	inactive: -0.0333
CCCTACTC	inactive: -0.0728
AGTGACAC	inactive: 0.198
AATCTACA	inactive: 0.27
GAATCACA	inactive: 0.063
CCCCCTTA	inactive: -0.253
AGCTTGAC	inactive: 0.0291
AGCGGAGG	inactive: -0.189
CTTGGCTC	inactive: -0.191
AACCTATC	inactive: 0.0111
AAAGCTCT	inactive: -0.225
ACGAAGGG	inactive: -0.153
TACTTTCA	inactive: 0.0535
CCGTCACA	inactive: 0.00306
CAATCGTC	inactive: 0.0634
CTTACATA	inactive: 0.288
AGATACCG	inactive: -0.0038
ACGTAGGC	inactive: -0.111
ACCTTAGG	inactive: -0.159

Sequence	PBM E-score
GGCGTTAC	inactive: -0.0347
AGTCGTGG	inactive: -0.0638
GAACAAAC	inactive: 0.273
ATACACAC	inactive: 0.256
TTACAGAA	inactive: 0.151
GTATCACA	inactive: 0.198
AACATCAC	inactive: 0.267
GGAATCGA	inactive: -0.117
CAAATTCC	inactive: 0.12
CCATAGAA	inactive: 0.0244
CACGGTTA	inactive: 0.0894
AGTACCAA	inactive: 0.128
CCGGGCCC	≥ -0.179
AGCACGTC	inactive: -0.0129
ACGGCGGA	≥ -0.134
CAAAGGGA	inactive: -0.00949
TGCGTTAA	inactive: -0.042
ACTTACGG	inactive: 0.00657
ATGAGGCC	inactive: -0.19
GCTGTGGA	inactive: -0.0809
AAATGGCC	inactive: -0.154
ACAGACGG	inactive: -0.0442
CTTGACTC	inactive: -0.0832
GGTCTGAA	inactive: -0.0713
AGCCGATA	≥ 0.0053

Sequence	PBM E-score
TGATCTAA	inactive: 0.0617
GTAGAAAA	inactive: 0.0328
CGGATGTA	inactive: 0.221
AGGAGGCA	inactive: -0.256
TTGGTAAA	inactive: 0.1
GAATCGCC	inactive: -0.205
CCCGTGAA	inactive: -0.0554
AGGCTTCC	≥ -0.117
CAAGAATC	inactive: 0.122
CGCAAAAA	inactive: 0.0226
TGCTGACA	inactive: 0.234
AAATATAT	≥ 0.253
AACAACCG	inactive: 0.235
ATCAACGA	inactive: 0.021
TATAATCA	inactive: 0.208
CAGGACAC	inactive: 0.117
GACAATGA	inactive: 0.0915
ATCATATC	inactive: 0.0963
ATAGAGAT	≥ 0.113
GAGTGCCA	inactive: -0.119
GCAGCCGA	inactive: -0.166
GCACGAAA	inactive: 0.102
GCGCTGTA	inactive: 0.0576
ATTCGTGA	inactive: 0.114
ACATTGCG	inactive: 0.125

Sequence	PBM E-score
AACACCCA	inactive: 0.091
CGCTACTA	inactive: 0.0331
GCCAAGTA	inactive: -0.0558
TCTAGCCA	inactive: -0.0519
CCCTTCGC	inactive: -0.184
ACTCCGGG	inactive: -0.0776
GGGGATAA	inactive: 0.0174
AAAGCAAC	inactive: 0.0317
AACAGTCG	inactive: -0.00715
AAGCACAG	inactive: 0.0525
AACATTAT	inactive: 0.29
CAGATGTA	inactive: 0.247
AAATGTAT	inactive: 0.241
GGTCTTCA	inactive: -0.145
CAAGCCGA	inactive: -0.0158
ACCCCACT	inactive: -0.183
CATATAAC	inactive: 0.211
CGGGTTCA	inactive: -0.0657
AGTCCACA	inactive: -0.0273
AGCGCCTC	inactive: -0.235
CACTTCCA	≥ 0.0199
ACAGTATG	inactive: 0.177
AACCGAGC	inactive: -0.116
ATGGCCTC	inactive: -0.152
AGTGCAAG	inactive: 0.0613

Sequence	PBM E-score
AGCGAGTC	inactive: -0.131
TACATAAA	active: 0.329
CACAATTC	inactive: 0.0726
GAGCGCCC	inactive: -0.279
CCTAGGGA	inactive: -0.0969
CGGCCGAG	inactive: -0.222
CCCCAAGC	inactive: -0.111
TCAATAGA	inactive: 0.0432
ACAACGCC	inactive: 0.12
GAGAATGC	inactive: 0.0148
GCGTGAAA	inactive: -0.0114
ACTCCAAT	inactive: -0.0022
GAGTGTGC	inactive: -0.0841
ATGACTGC	inactive: 0.00972
CTGAACTC	inactive: -0.0888
TCCTCCAA	inactive: -0.118
ATGACTTG	inactive: 0.0173
ACTATGTA	active: 0.312
GTGCGATA	inactive: -0.0187
CTGGCAAA	inactive: -0.0982
ATCTTCGA	inactive: 0.0402
AATACCCG	inactive: 0.00706
GCCCACGA	inactive: -0.222
ACTAAATG	inactive: 0.0694
GAGTAAAA	inactive: 0.0592

Sequence	PBM E-score
AGATGTCC	inactive: 0.234
AAAACCGG	inactive: -0.0173
AGTGCCAC	inactive: -0.0664
AAGCTGGG	inactive: -0.0993
GCGTGCAA	inactive: -0.00418
CAGGAAGC	inactive: -0.008
AAGTGCCG	inactive: -0.0869
CTCCATAA	inactive: 0.00322
CTAAGACC	inactive: -0.0468
AAAAAACC	inactive: 0.0838
TGGGACCA	inactive: -0.074
AGAGCCAA	inactive: -0.0447
GCTGGACA	inactive: 0.0811
AGTCTCCC	inactive: -0.0964
AGCGGACG	inactive: -0.236
CCGCGAGG	inactive: -0.255
CTCTTCGA	inactive: 0.0132
CCCTTCCC	inactive: -0.179
GCCTCCTA	inactive: -0.157
TCAATTCA	inactive: 0.0705
GGGCGAGA	inactive: -0.203
AGCTATAT	inactive: 0.0597
CGCTGAAA	inactive: -0.117
CATATGAG	inactive: 0.0984
GTAGGGAC	inactive: -0.0404

Sequence	PBM E-score
GAGGCGGC	inactive: -0.269
ACTGGTGC	inactive: 0.0345
TAGCCTAA	inactive: -0.0114
ATCCGAAA	inactive: -0.0583
ACCAAGAC	inactive: 0.0293
GTACGGTA	inactive: 0.0328
GGCAGGAA	inactive: -0.0697
TAGTGAGA	inactive: -0.00666
AACTCACG	inactive: -0.0141
GGAGTCCC	inactive: -0.176
AGTGGTCG	inactive: 0.0104
TAGTTCAA	inactive: 0.0464
CCTATACG	inactive: -0.113
ATGGAGCG	inactive: -0.0837
ATCTAACA	inactive: 0.244
CCAACGGC	inactive: -0.228
AAAAAATG	inactive: 0.0978
GTTATAGA	inactive: 0.217
CGGCGGTA	inactive: -0.0433
GGGAAGGA	inactive: -0.134
AAGATCTA	inactive: -0.0189
AACGTCCA	inactive: -0.0088
GCGGCTGA	inactive: -0.214
TCCGCAAA	inactive: -0.0879
